Data on 49 molecules can be found in PubChem BioAssay AID1508623 (National Center for Advancing Translational Sciences (NCATS), 2021).

Molecules are shown by their SMILES. Hit rate of the full screen: of about 48,000 compounds, about 450 (0.94%) were called active. Roughly 19% stayed inconclusive and do not appear here. Calls follow the shape of the dose curve; as a rule, active = well fitted inhibition curve with a large enough effect; inconclusive = small, poorly fitted or top-dose-only effect; inactive = no such curve, though single readings can be large or run the other way. The list shows a part of the results.

A short description of the assay: Primary qHTS for Identification of Small Molecule Inhibitors of Huntingtin Promoter Activity. Also: nearly all actives have a fitted effect of over 50% in size. The settings on record: HEK293 HTT promoter firefly luciferase reporter (activity 0% = vehicle and -100% = no light), 24 h; series mostly up to 57.5 µM; activity change, negative = inhibition: at the top concentration. The gist of the method: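 Firefly luciferase signal from promoter-reporter HEK293 cells was scaled between vehicle (0%) and zero RLU (-100%). Compounds were tested at final concentrations of up to 57.5 uM over 24 h at 37 degrees C. PTC124 at 50 uM final served as control inhibitor.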
(In general: Quantitative high-throughput screening tests each substance at several concentrations.)
In the case of `CCOc1ccc(NC(=O)Cn2c(=O)cc(C)c3c(C)nn(-c4ccc(CC)cc4)c32)cc1`, the “activity change, negative = inhibition” value was inactive: 5.63%.

As for `COc1ccc(C(=O)Nc2ccccc2C(=O)OCc2cc(=O)n3nc(C4CC4)sc3n2)cc1`, the “activity change, negative = inhibition” value was inactive: -1.56%.

With `CCOC(=O)N1CCc2c(sc3c2c(=O)n(-c2ccc(CC)cc2)c(=O)n3Cc2cc(C)ccc2C)C1`, the “activity change, negative = inhibition” value was inactive: -6.89%.

Regarding `CCOC(=O)c1c(C)oc2nc(C)nc(Nc3cc(C)ccc3OC)c12`, the “activity change, negative = inhibition” value is inactive: 15.4%.

Take `CCOc1ccccc1NC(=O)C1CCCN(S(=O)(=O)c2cn(C)cn2)C1` (centres undefined): the “activity change, negative = inhibition” value is inactive: -17.6%.

For `CC(C)c1ccc(/C=C(\C#N)c2nc(-c3ccc(O)cc3)cs2)cc1`, the “activity change, negative = inhibition” value is inactive: -21.8%.

With `Cn1ccc2cc(S(=O)(=O)N3CCN(C(=O)Nc4ccccc4F)CC3)ccc21`, the “activity change, negative = inhibition” value is inactive: -9.23%.

Regarding `Nc1nc(N)c(S(=O)(=O)c2ccccc2)c(Nc2ccc(F)cc2)n1`, the “activity change, negative = inhibition” value is inactive: -24.1%.

Consider `O=C(CSc1nc2ccccc2nc1Cc1ccccc1)N1CCCc2ccccc21`, for which the “activity change, negative = inhibition” value was inactive: -23.8%.

`CCOC(N)=O`: the “activity change, negative = inhibition” value was inactive: 17%.

Consider `CCOC(=O)c1cccc(NC(=O)c2sc3nc[nH]c(=O)c3c2C)c1`, for which the “activity change, negative = inhibition” value was inactive: 59.4%.

Take `CCc1ccc2occ(CC(=O)N(Cc3ccc(N(C)C)cc3)C3CCS(=O)(=O)C3)c2c1` (centres undefined): the “activity change, negative = inhibition” value was inactive: -17.6%.

Turning to `Cc1cccc(N(C)S(=O)(=O)c2nnc(NC(=O)C3CCCCC3)s2)c1`, the “activity change, negative = inhibition” value is inactive: -19.1%.

Turning to `Cc1cccc(C(=O)Nc2ccc(N3CCC(CCN4CCOCC4)CC3)c(C(=O)O)c2)c1`, the “activity change, negative = inhibition” value is inactive: -4%.

For `O=C(Nc1ccc(S(=O)(=O)N2CCC(c3nc4ccccc4s3)CC2)cc1)c1ccccc1F`, the “activity change, negative = inhibition” value was inactive: -8.49%.

Turning to `CCN(C(=O)NCc1noc2ccccc12)c1cc(C)ccc1C`, the “activity change, negative = inhibition” value is inactive: -25.3%.

Consider `CCOc1ccc(CNC(=O)CCn2cccn2)cc1OC`, for which the “activity change, negative = inhibition” value was inactive: -0.333%.

In the case of `CCCCC12CN3CC(C)(CN(C1)C3c1c(C)[nH]c(=O)[nH]c1=O)C2=O` (centres undefined), the “activity change, negative = inhibition” value was inactive: -12.6%.

As to `CCN(CCCNC(=O)c1nn(-c2ccc(OC)cc2)c(=O)c2c1c1ccccc1n2C)c1cccc(C)c1`, the “activity change, negative = inhibition” value is inactive: -9.83%.

On to `CCOc1ccc(NC(=O)CN2C(=O)C(c3ccccc3)=NC23CCCCCC3)cc1`, for which the “activity change, negative = inhibition” value was inactive: -26.1%.

On to `Cc1nc2nc(SCC(=O)NC(C)c3ccccc3)nn2c(C)c1Cc1c(F)cccc1Cl` (centres undefined), for which the “activity change, negative = inhibition” value is inactive: -27.2%.

For `Cc1ccc(Nc2nccc(N(C)c3ccc4c(C)n(C)nc4c3)n2)cc1S(N)(=O)=O`, the activity change, negative = inhibition entry is “inactive”.

`CCOc1ccc(CN2C(=O)c3ccccc3Sc3ccc(C(=O)NCc4ccc(C)cc4)cc32)cc1`: the “activity change, negative = inhibition” value was inactive: -23.8%.

For `COc1cccc(CSc2nc3n(n2)C(c2ccccc2C)C(C(=O)Nc2ccccc2OC)=C(C)N3)c1` (centres undefined), the “activity change, negative = inhibition” value was inactive: 0%.

Take `O=C(CSc1oc(-c2ccco2)nc1S(=O)(=O)c1ccc(Cl)cc1)c1ccccc1`: the “activity change, negative = inhibition” value was inactive: -13.7%.

Regarding `COCCCn1c(=N)c(C(=O)NC2CCCC2)cc2c(=O)n3ccccc3nc21`, the “activity change, negative = inhibition” value is inactive: -3.51%.

On to `Cc1ccc(CCNC(=O)CCSCc2ccc(Cl)cc2)cc1`, for which the “activity change, negative = inhibition” value was inactive: -18.5%.

On to `Cc1ccc(-c2nc3c4cnn(-c5cc(Cl)ccc5Cl)c4ncn3n2)cc1`, for which the “activity change, negative = inhibition” value is inactive: 2.28%.

As for `CCN(CC)CCNC(=O)c1cc(Br)c(N)cc1OC`, the “activity change, negative = inhibition” value is inactive: -11.4%.

`Cc1ccc(S(=O)(=O)c2nnn3c2nc(Nc2ccc(C(C)C)cc2)c2sccc23)cc1C`: the “activity change, negative = inhibition” value is inactive: -14.2%.

As to `CCOc1ccc(-n2c(SCc3nc(-c4ccccc4C)no3)nnc2-c2ccccc2)cc1`, the “activity change, negative = inhibition” value was inactive: 1.82%.

With `CC(C)Cc1nn2c(=O)cc(COC(=O)c3ccccc3NC(=O)c3ccccc3)nc2s1`, the “activity change, negative = inhibition” value is inactive: -18.1%.

As for `CC(=O)Nc1ccc(NC(=O)CN2C(=O)CN(C)C(=O)c3ccccc32)cc1`, the “activity change, negative = inhibition” value was inactive: 7.38%.

Consider `CCCn1c(=O)c2sccc2n2c(CCCC(=O)NCCOC)nnc12`, for which the “activity change, negative = inhibition” value is inactive: -11.2%.

Turning to `CN(C)c1ccc(CNc2nc(-c3ccco3)nn2C(=O)c2cccc([N+](=O)[O-])c2)cc1`, the “activity change, negative = inhibition” value is inactive: 53.7%.

Turning to `CN(C)c1ccc(CN(CC2CCCO2)C(=O)COc2ccc(Cl)cc2)cc1` (centres undefined), the “activity change, negative = inhibition” value is inactive: -29.4%.

For `CCc1ccc(-n2c(C)nc3cc(C(=O)NCCc4ccccc4)ccc32)cc1`, the “activity change, negative = inhibition” value is inactive: -21.1%.

For `CC(C)CC(=O)Nc1ccc(C(=O)OCc2cc(=O)n3nc(C4CCCCC4)sc3n2)cc1`, the “activity change, negative = inhibition” value is inactive: -9.79%.

For `Cc1nc(N2CCCC2)ncc1C(=O)Nc1ccccc1`, the “activity change, negative = inhibition” value is inactive: 0.537%.

In the case of `COc1cccc(CN2C(=O)c3ccccc3C2C(=O)NCCc2ccc(OC)c(OC)c2)c1` (centres undefined), the “activity change, negative = inhibition” value is inactive: -6.81%.

Take `Cc1cc(O)c(C(c2cccc(Cl)c2)N2CCN(c3ccccc3)CC2)c(=O)n1Cc1ccco1` (centres undefined): the “activity change, negative = inhibition” value is inactive: -0.764%.

Regarding `CCC1CN(C(=O)NCc2ccc(F)cc2)c2ccccc2O1` (centres undefined), the “activity change, negative = inhibition” value is inactive: 0.996%.

As for `Cc1ccc(NC(=O)c2ccco2)c(OCc2cc(=O)n3cc(C)sc3n2)c1`, the “activity change, negative = inhibition” value was inactive: -5.63%.

For `COc1ccc(-n2c(=O)c3c4c(sc3n(Cc3cc(=O)n5c(C)cccc5n3)c2=O)CCC4)c(OC)c1`, the “activity change, negative = inhibition” value is inactive: -4.62%.

For the molecule `CC(C)(Cc1c[nH]c2ccccc12)NCC(O)COc1ccccc1C#N` (centres undefined), the “activity change, negative = inhibition” value was inactive: -6.35%.

As to `Cc1ccc(Cn2c(=O)c3ccccc3n3c(-c4ccccc4)nnc23)cc1`, the “activity change, negative = inhibition” value was inactive: -12.4%.

Turning to `CCc1ccc(CNC(=O)CSCc2cnn(-c3ccccc3)c2-n2cccc2)cc1`, the “activity change, negative = inhibition” value is inactive: -14%.

Take `Cc1ccc(OCC(=O)Nc2ccc3nc(SCC(=O)N4CCCC4)sc3c2)cc1C`: the “activity change, negative = inhibition” value is inactive: -2.67%.

In the case of `COc1ccc(NC(=O)CCCS(=O)(=O)c2nc(-c3ccc(OC)c(OC)c3)cc(C(F)(F)F)n2)cc1OC`, the “activity change, negative = inhibition” value was inactive: -9.35%.
